Test results published in PubChem BioAssay AID485360 (National Center for Advancing Translational Sciences (NCATS), 2010).
The campaign covered roughly 230,000 compounds. About 1,500 (0.65%) were called active. The inconclusive results got no clear call from the source; some entries with a clear call stand among them for comparison. The call rests on the fitted dose curve; in most records, active means well fitted inhibition curve with a large enough effect; inconclusive means small, poorly fitted or top-dose-only effect; inactive means no such curve, though single readings can be large or run the other way. Where the call is inconclusive, the potency comes from a doubtful curve fit.

Each compound was assayed against Lethal(3)malignant brain tumor-like protein 1 (Homo sapiens) (UniProt Q9Y468) (assay: qHTS Assay for the Inhibitors of L3MBTL1). Conditions: AlphaScreen L3MBTL1–H3K9me1 peptide binding; series mostly up to 57.1 µM.
Method in brief: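 L3MBTL1 50 nM + b-AHA-H3(1-15)K9me1 75 nM, 30 min RT; compound added, 30 min RT; streptavidin donor/Ni-chelate acceptor beads 10 ug/mL each final, 30 min RT dark; AlphaScreen read.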
Further: nearly all actives have a fitted effect of over 60% in size.
Potency means the concentration at half of the fitted maximal effect; tags describe the fitted curve by direction and shape.

Chain of UniProt Q9Y468 (Q9Y468 whole entry, looked up): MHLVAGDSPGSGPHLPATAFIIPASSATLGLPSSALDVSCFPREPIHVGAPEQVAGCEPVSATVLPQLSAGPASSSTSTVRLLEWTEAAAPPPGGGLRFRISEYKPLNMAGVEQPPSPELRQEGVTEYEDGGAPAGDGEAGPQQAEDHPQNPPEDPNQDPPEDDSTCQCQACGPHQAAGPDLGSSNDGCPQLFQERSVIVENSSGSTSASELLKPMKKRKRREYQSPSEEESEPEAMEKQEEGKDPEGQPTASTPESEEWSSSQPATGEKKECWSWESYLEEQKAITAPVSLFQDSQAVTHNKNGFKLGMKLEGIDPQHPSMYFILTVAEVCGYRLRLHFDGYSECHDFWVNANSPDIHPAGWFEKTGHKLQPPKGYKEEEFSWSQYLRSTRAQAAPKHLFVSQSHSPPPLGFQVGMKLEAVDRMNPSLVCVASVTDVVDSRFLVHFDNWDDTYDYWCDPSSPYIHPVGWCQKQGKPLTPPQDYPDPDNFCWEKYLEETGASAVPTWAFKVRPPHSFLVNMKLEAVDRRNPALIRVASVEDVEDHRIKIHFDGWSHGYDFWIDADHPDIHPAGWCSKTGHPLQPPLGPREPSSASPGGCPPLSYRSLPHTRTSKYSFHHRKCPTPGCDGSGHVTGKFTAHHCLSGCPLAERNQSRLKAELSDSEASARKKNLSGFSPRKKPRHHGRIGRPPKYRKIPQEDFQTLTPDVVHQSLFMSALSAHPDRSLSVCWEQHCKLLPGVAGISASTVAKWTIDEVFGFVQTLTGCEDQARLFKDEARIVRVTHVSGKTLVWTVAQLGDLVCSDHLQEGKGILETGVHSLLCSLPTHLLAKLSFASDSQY

Row | SMILES | Potency
1 | CCCOc1ccc(/C=N/NC(=S)Nc2ccccc2[N+](=O)[O-])c(O)c1 | inconclusive: 6.31 µM [inhibitor, partial curve]
2 | c1ccc2c(c1)OCC(c1nnc3sc(-c4cnccn4)nn13)O2 (centres undefined) | inactive
3 | COc1ccc(CN2C(=O)c3ccccc3C2C(=O)NC2CCCC2)c(OC)c1 (centres undefined) | inactive
4 | Cn1c(=O)c2c(ncn2CC(O)CNc2cccc(Cl)c2)n(C)c1=O (centres undefined) | inconclusive: 39.8 µM [inhibitor, single point]
5 | O=C(N/N=C/c1ccc(O)c([N+](=O)[O-])c1)C1CC1(c1ccccc1)c1ccccc1 (centres undefined) | inconclusive: 20 µM [inhibitor, partial curve]
6 | O=C(c1cccc(Cl)c1)N1CCN(C(=O)c2ccccc2F)CC1 | inconclusive: 6.31 µM [inhibitor, single point]
7 | Cc1ccc(C(NC(=O)C(C)C)c2cc([N+](=O)[O-])c3cccnc3c2O)cc1 (centres undefined) | active: 25.1 µM
8 | NS(=O)(=O)c1ccc(NC(=O)COC(=O)CSc2n[nH]c(-c3ccccc3)n2)cc1 | inactive
9 | Cc1ccc(S(=O)(=O)N/N=C\c2ccc(C)o2)cc1 | inconclusive: 25.1 µM [inhibitor, single point]
10 | O=c1ccc(S(=O)(=O)N2CCCC2)cn1Cc1nc(-c2ccccc2)no1 | inconclusive: 6.31 µM [inhibitor, single point]
11 | Cc1cccc(C)c1NC(=S)/C(=C(\[O-])c1cccs1)[n+]1ccccc1 | inactive
12 | CN(C)S(=O)(=O)c1ccc(N2CCCC2)c(C(=O)NNC(=O)c2ccccc2)c1 | inconclusive: 39.8 µM [inhibitor, single point]
13 | C=C(C)C1CC=C(C)/C(=N/Nc2ccccc2[N+](=O)[O-])C1 (centres undefined) | inconclusive: 28.2 µM [inhibitor, partial curve]
14 | CC(C)c1nnc(NC(=O)C2CCCN2C(=O)Nc2ccccc2F)s1 (centres undefined) | inconclusive: 31.6 µM [inhibitor, single point]
15 | C/C(N)=C(/C#N)C(=O)CSc1nnc(NC(C)C)s1 | inconclusive: 35.5 µM [inhibitor, single point]
16 | COC(=O)/C=C1\C(=O)N(c2nc3ccc(OC)cc3s2)C(=S)N1c1ccc(F)cc1 | inactive
17 | COc1ccc(CCNC(=O)C(=O)NCC2OCCN2S(=O)(=O)c2ccc(F)cc2)cc1OC (centres undefined) | inconclusive: 25.1 µM [inhibitor, single point]
18 | O=C(CCS(=O)(=O)c1ccc(Br)cc1)Nc1ccc2c(c1)OCO2 | inconclusive: 28.2 µM [inhibitor, single point]
19 | COc1ccc(OCc2cc(C(=O)O)c(C)o2)cc1 | inconclusive: 35.5 µM [inhibitor, single point]
20 | CC(=O)c1ccc(S(=O)(=O)Nc2c(C)nn(C)c2C)cc1 | active: 28.2 µM
21 | Cc1c(NC(=O)C(C)OC(=O)c2c3c(nc4ccccc24)CCC3)c(=O)n(-c2ccccc2)n1C (centres undefined) | inconclusive: 28.2 µM [inhibitor, single point]
22 | Cc1cc(=O)oc(C)c1C(=O)Nc1ccc(N(C)C)cc1 | inactive

Row | SMILES | Potency
23 | Cc1ccc(-c2nc3ccccc3c(=O)n2NC(=O)COc2ccccc2)cc1 | inactive
24 | Cc1ccc(OCc2nc(C#N)c(N3CCCCC3)o2)cc1 | inconclusive: 3.16 µM [inhibitor, partial curve]
25 | COc1cccc(N2CC(NS(=O)(=O)c3ccc4ccccc4c3)CC2=O)c1 (centres undefined) | inconclusive: 20 µM [inhibitor, partial curve]
26 | CCOc1ccccc1-n1nnnc1SCC(=O)NC(=O)NCc1ccco1 | active: 25.1 µM
27 | CC(C)CC1=C/C(=C/c2ccc(-c3ccccc3)o2)C(=O)O1 | inconclusive: 31.6 µM [inhibitor, single point]
28 | CCCN1C(=O)/C(=C2/C=Cc3ccccc3N2CC)SC1=S | inconclusive: 0.562 µM [inhibitor, full curve]
29 | NC(=O)c1ccsc1NC(=O)CSc1nnc2ccccn12 | inconclusive: 10 µM [inhibitor, partial curve, poor fit]
30 | Cc1[nH]c2ccccc2c1/C=N/NC(=O)C1CC1(c1ccccc1)c1ccccc1 (centres undefined) | inactive
31 | NC(=O)[C@@H]1CCCCNc2c(I)cc([N+](=O)[O-])cc2C(=O)N[C@@H](CCC(=O)O)C(=O)N[C@@H](CO)C(=O)N1 | inconclusive: 20 µM [inhibitor, single point]
32 | CC1(C)Cc2c(c(-c3ccco3)nc3sc4c(NCC5CCCO5)ncnc4c23)CO1 (centres undefined) | inconclusive: 6.31 µM [inhibitor, single point]
33 | O=C(CSc1ccc(Cl)cc1)N1CCN(c2c(Cl)cccc2[N+](=O)[O-])CC1 | inactive
34 | CN1CCN(c2ccc(NC(=O)CN3CCOCC3)cc2F)CC1 | inconclusive: 3.98 µM [inhibitor, partial curve]
35 | CN(C)S(=O)(=O)c1cccc(NC(=O)COC(=O)/C=C/c2ccco2)c1 | inconclusive: 22.4 µM [inhibitor, partial curve]
36 | CCOc1ccc2[nH]c(=O)c(CN(Cc3nnnn3CCc3ccccc3)CC3CCCO3)cc2c1 (centres undefined) | inconclusive: 7.08 µM [inhibitor, single point]
37 | O=C(CN1CCN(CC(=O)c2ccc(F)cc2)CC1)Nc1ccccc1Cl | inactive
38 | COc1ccc(CNC(=O)c2ccc(Cn3nc(C)c([N+](=O)[O-])c3C)o2)cc1 | inconclusive: 25.1 µM [inhibitor, single point]
39 | O=C(c1n[nH]c2ccccc12)N1CCCCC1 | inactive
40 | O=C(O)c1ccc(N=N/C(=N\Nc2ccc(C(=O)O)cc2)c2ccccc2)cc1 | inconclusive: 35.5 µM [inhibitor, single point]
41 | CN(C(=O)COC(=O)c1cccc(Cl)c1)C1CCS(=O)(=O)C1 (centres undefined) | inactive
42 | CCOC(=O)c1sc(N/N=C/c2cc(Br)c(O)c(OC)c2)nc1C | inactive
43 | O=c1[nH]c2c(cnn2-c2ccc(Cl)cc2)c(=O)n1-c1cccc(Cl)c1 | inactive
44 | COc1cc2c(cc1OC)CN(c1nc(CN3CCOCC3)nc3sc4c(c13)CCC(C)C4)CC2 (centres undefined) | inconclusive: 15.8 µM [inhibitor, partial curve]
